From article PMC7614096, “Head-to-tail polymerization by VEL proteins underpins cold-induced Polycomb silencing in flowering control” (Cell Reports, 2022)
These are yes or no findings as the source states them, for the method shown. For some of these results: Binding seen in cells or lysates may run through a third protein. Some entries that bind do so weakly or less than the wild type. For some of these results: Tags and fused reporters may be left off the sequences shown. One block for each molecule: values may come before it.

Columns and labels:
[1] = molecular target: VIN3, full length, tagged (GFP-VIN3) (Arabidopsis thaliana) (UniProt Q9FIE3); experiment: co-IP; co-overexpression in HEK293T cells; lysis in 20 mM Tris pH 7.4, 200 mM NaCl, 10% glycerol, 0.2% Triton X-100; GFP-tagged protein precipitated with GFP-trap, 90 min at 4°C; Western blot
[2] = molecular target: Lip-VEL1VEL (residues 589–692) RK>AD (R643A K645D) (Arabidopsis thaliana) (UniProt Q9SUM4); experiment: SEC-MALS; Superdex200 10/300 GL in PBS with 1 mM DTT; increasing protein concentrations (2 mg/mL unless stated otherwise); self-association; both purified
[3] = molecular target: VEL1VEL (residues 589–692) RK>AD, as examined for floaters and fibers (Arabidopsis thaliana) (UniProt Q9SUM4); experiment: negative-stain electron microscopy; purified VIN3VEL (∼35 μM) or VEL1VEL (∼138 μM) on carbon grids, 2% uranyl acetate; self-assembly into fibers or lattices; both purified
[4] = molecular target: VRN5, full length, tagged (GFP-VRN5) (Arabidopsis thaliana) (UniProt Q9LHF5); experiment: co-IP; co-overexpression in HEK293T cells; lysis in 20 mM Tris pH 7.4, 200 mM NaCl, 10% glycerol, 0.2% Triton X-100; GFP-tagged protein precipitated with GFP-trap, 90 min at 4°C; Western blot
[5] = molecular target: Lip-VIN3VEL (residues 500–603) RR>AD (R554A R556D) (Arabidopsis thaliana) (UniProt Q9FIE3); experiment: SEC-MALS; Superdex200 10/300 GL in PBS with 1 mM DTT; increasing protein concentrations (2 mg/mL unless stated otherwise); self-association; both purified
[6] = molecular target: Lip-VIN3VEL (residues 500–603) I575D (Arabidopsis thaliana) (UniProt Q9FIE3); experiment: as above
[7] = molecular target: VEL1, full length, tagged (GFP-VEL1) (Arabidopsis thaliana) (UniProt Q9SUM4); experiment: co-IP; co-overexpression in HEK293T cells; lysis in 20 mM Tris pH 7.4, 200 mM NaCl, 10% glycerol, 0.2% Triton X-100; GFP-tagged protein precipitated with GFP-trap, 90 min at 4°C; Western blot
[8] = molecular target: VIN3VEL, wild type, Lip tag cleaved off by TEV protease (EM) (Arabidopsis thaliana) (UniProt Q9FIE3); experiment: negative-stain electron microscopy; purified VIN3VEL (∼35 μM) or VEL1VEL (∼138 μM) on carbon grids, 2% uranyl acetate; self-assembly into fibers or lattices; both purified

- binding [1]: binds
Molecule: VIN3, full length, tagged (GFP-VIN3) (from UniProt Q9FIE3 1-620)

- binding [2]: no binding
B1: Lip-VEL1VEL (residues 589–692) RK>AD (R643A K645D) (domain or fragment, UniProt Q9SUM4 589-692)
chain: SDEIKNRQARIEISMKDNCNNGDHSANGGTESGLEHCVKIIRQLECSGHIDKNFAQDFLTWYSLRATSQEIRVVKIFIDTFIDDPMALAEQLIDTFDDRVSIKR

- binding [3]: no binding
B2: VEL1VEL (residues 589–692) RK>AD, as examined for floaters and fibers (domain or fragment, UniProt Q9SUM4 589-692)
chain: SDEIKNRQARIEISMKDNCNNGDHSANGGTESGLEHCVKIIRQLECSGHIDKNFAQDFLTWYSLRATSQEIRVVKIFIDTFIDDPMALAEQLIDTFDDRVSIKR

- binding [1]: binds
- binding [4]: binds
B3: VRN5, full length, tagged (GFP-VRN5) (protein, UniProt Q9LHF5 1-602)
chain: MDSSSTKSKISHSRKTNKKSNKKHESNGKQQQQQDVDGGGGCLRSSWICKNASCRANVPKEDSFCKRCSCCVCHNFDENKDPSLWLVCEPEKSDDVEFCGLSCHIECAFREVKVGVIALGNLMKLDGCFCCYSCGKVSQILGCWKKQLVAAKEARRRDGLCYRIDLGYRLLNGTSRFSELHEIVRAAKSMLEDEVGPLDGPTARTDRGIVSRLPVAANVQELCTSAIKKAGELSANAGRDLVPAACRFHFEDIAPKQVTLRLIELPSAVEYDVKGYKLWYFKKGEMPEDDLFVDCSRTERRMVISDLEPCTEYTFRVVSYTEAGIFGHSNAMCFTKSVEILKPVDGKEKRTIDLVGNAQPSDREEKSSISSRFQIGQLGKYVQLAEAQEEGLLEAFYNVDTEKICEPPEEELPPRRPHGFDLNVVSVPDLNEEFTPPDSSGGEDNGVPLNSLAEADGGDHDDNCDDAVSNGRRKNNNDCLVISDGSGDDTGFDFLMTRKRKAISDSNDSENHECDSSSIDDTLEKCVKVIRWLEREGHIKTTFRVRFLTWFSMSSTAQEQSVVSTFVQTLEDDPGSLAGQLVDAFTDVVSTKRPNNGVMTSH

- binding [5]: no binding
B4: Lip-VIN3VEL (residues 500–603) RR>AD (R554A R556D) (domain or fragment, UniProt Q9FIE3 500-603)
chain: GKQGGNKRFKSRTVSLNEKPEINNAANGVGDKDLGHIVKTIRCLEEEGHIDKSFAEDFLTWYSLRATHREVRVVKIFVETFMEDLSSLGQQLVDTFSESILSKR

- binding [6]: no binding
B5: Lip-VIN3VEL (residues 500–603) I575D (domain or fragment, UniProt Q9FIE3 500-603)
chain: GKQGGNKRFKSRTVSLNEKPEINNAANGVGDKDLGHIVKTIRCLEEEGHIDKSFRERFLTWYSLRATHREVRVVKDFVETFMEDLSSLGQQLVDTFSESILSKR

- binding [1]: binds
- binding [7]: binds
B6: VEL1, full length, tagged (GFP-VEL1) (protein, UniProt Q9SUM4 1-714)
chain: MDSSLDGAAGDSSKCSEMSVDEKRQLVYELSKQSHLAAEVLQAWSRQEILQILCAEMGKERKYTGLTKVKIIETLLKIVSEKNSGECEGKKRDSDCLPIQRNTKRQRKVDNPSRYVIPATNIVTSNNASGSCSSVNTKGESTTIYCKNLACRAVLRQEDSFCRRCSCCICRKYDDNKDPSLWLTCSSDPPFEGESCGFSCHLECAFNTEKSGLGKDKQSEGCCFYCVSCGKANSLLECWKKQLTIAKETRRVEVLCYRLFLVQKLLKSSTKYRNLCEVVDEAVKTLEADVGPLTGLPMKMGRGIVNRLHSGPDVQKLCSSALESLETIATTPPDVAALPSPRSSKMQQDCSYVLSNEISADTATTGSTKIRFEDVNATSLTVVLASNEIPSPPNIVHYSIWHRKVPEKDYPEKSTCTLFIPNTRFVVSGLAPASEYCFKVVSYSGTREMGVDEINVLTRSAEEGANCSSAVERSVSPLTNCSTLSSNPSSVEAESNNDYIVPKKPSSKNEDNNSPSVDESAAKRMKRTTDSDIVQIEKDVEQIVLLDDEEQEAVLDKTESETPVVVTTKSLVGNRNSSDASLPITPFRSDEIKNRQARIEISMKDNCNNGDHSANGGTESGLEHCVKIIRQLECSGHIDKNFRQKFLTWYSLRATSQEIRVVKIFIDTFIDDPMALAEQLIDTFDDRVSIKRSAVGGSGASAVVPSGFCMKLWH

- binding [8]: binds
B7: VIN3VEL, wild type, Lip tag cleaved off by TEV protease (EM) (domain or fragment, UniProt Q9FIE3 529-603)
chain: GDKDLGHIVKTIRCLEEEGHIDKSFRERFLTWYSLRATHREVRVVKIFVETFMEDLSSLGQQLVDTFSESILSKR
